Values quoted from earlier work as cited in PubChem BioAssay AID1259409 (Chemical Carcinogenesis Research Information System (CCRIS), 2018).
“Also recorded” adds a separate entry of the source. For part of its entries the source gives two or more results. They are shown here; other results are not. The source may hold further records. Values that stand side by side are repeats across runs, samples, wells, individuals or studies. What stands in brackets tells the records apart. Letters hold for one entry only.

System: rodent chemically induced tumor inhibition, incidence and multiplicity
Experiment: CCRIS tumor inhibitor studies
Settings: Dose [Inhibitor]: 0, Route [Inhibitor]: ORAL, Species: RAT, Strain/Sex: F344/MALE, Promoter: NONE USED
Text: The CCRIS database contains chemical records with carcinogenicity, mutagenicity, tumor promotion, and tumor inhibition test results. It was developed by the National Cancer Institute (NCI). Data are derived from studies cited in primary journals, current awareness tools, NCI reports, and other sources. Test results have been reviewed by experts in carcinogenesis and mutagenesis.
CCRIS provides historical information from the years 1985 - 2011. It is no longer updated.
This is an archive assay for CCRIS tumor inhibitor studies.

In the case of `O=C(O)c1ccc(O)c(O)c1`, the “tumour outcome (control, treated, inhibition, significance)” value (Carcinogen: 4-NITROQUINOLINE-1-OXIDE, 56-57-5, 500 PPM IN DIET FOR 22 WK BEGINNING 1 WK POST CARCINOGEN TREATMENT (STUDY DURATION: 32 WK), Target Tissue: Type of Lesion: TONGUE: CARCINOMA, Dose [Carcinogen]: 20 PPM IN DRINKING WATER FOR 8 WK) is listed as 11/19 (58%), 1/21 (5%), 91%, p<0.001 [study A] and 58%, 5%, 91%, p<0.05 [study B], the “tumour outcome (control, treated, inhibition, significance)” value (Carcinogen: 4-NITROQUINOLINE-1-OXIDE, 56-57-5, 1000 PPM IN DIET FOR 10 WK BEGINNING 1 WK PRIOR TO CARCINOGEN TREATMENT (STUDY DURATION: 32 WK), Target Tissue: Type of Lesion: TONGUE: CARCINOMA, Dose [Carcinogen]: 20 PPM IN DRINKING WATER FOR 8 WK) is listed as 11/19 (58%), 0/19 (0%), 100%, p<0.001 [study A] and 58%, 0%, 100%, p<0.05 [study B] and the “tumour outcome (control, treated, inhibition, significance)” value (Carcinogen: 4-NITROQUINOLINE-1-OXIDE, 56-57-5, 1000 PPM IN DIET FOR 22 WK BEGINNING 1 WK POST CARCINOGEN TREATMENT (STUDY DURATION: 32 WK), Target Tissue: Type of Lesion: TONGUE: CARCINOMA, Dose [Carcinogen]: 20 PPM IN DRINKING WATER FOR 8 WK) is listed as 11/19 (58%), 2/19 (11%), 81%, p<0.01 [study A] and 58%, 11%, 81%, p<0.05 [study B]. The “tumour outcome (control, treated, inhibition, significance)” value (Carcinogen: 4-NITROQUINOLINE-1-OXIDE, 56-57-5, 2000 PPM IN DIET FOR 10 WK BEGINNING 1 WK PRIOR TO CARCINOGEN TREATMENT (STUDY DURATION: 32 WK), Target Tissue: Type of Lesion: TONGUE: CARCINOMA, Dose [Carcinogen]: 20 PPM IN DRINKING WATER FOR 8 WK) was 11/19 (58%), 0/21 (0%), 100%, p<0.001 [study A] and 58%, 0%, 100%, p<0.05 [study B], the “tumour outcome (control, treated, inhibition, significance)” value (Carcinogen: 4-NITROQUINOLINE-1-OXIDE, 56-57-5, 2000 PPM IN DIET FOR 22 WK BEGINNING 1 WK POST CARCINOGEN TREATMENT (STUDY DURATION: 32 WK), Target Tissue: Type of Lesion: TONGUE: CARCINOMA, Dose [Carcinogen]: 20 PPM IN DRINKING WATER FOR 8 WK) was 11/19 (58%), 0/20 (0%), 100%, p<0.001 [study A] and 58%, 0%, 100%, p<0.05 [study B] and the “tumour outcome (control, treated, inhibition, significance)” value (Carcinogen: N-METHYL-N-NITROSOUREA, 684-93-5, 500 PPM IN DIET FOR 14 WK BEGINNING 1 WK PRIOR TO CARCINOGEN TREATMENT (STUDY DURATION: 36 WK), Target Tissue: Type of Lesion: GLANDULAR STOMACH: ADENOCARCINOMA, Dose [Carcinogen]: 400 PPM IN DRINKING WATER FOR 12 WK) was 59%, 32%, 46%, not significant [study A]; also recorded: 13/22 (59%), 7/22 (32%), 46%, not significant [study B]. For the same molecule, the “tumour outcome (control, treated, inhibition, significance)” value (Carcinogen: N-METHYL-N-NITROSOUREA, 684-93-5, 500 PPM IN DIET FOR 22 WK BEGINNING 1 WK POST CARCINOGEN TREATMENT (STUDY DURATION: 36 WK), Target Tissue: Type of Lesion: GLANDULAR STOMACH: ADENOCARCINOMA, Dose [Carcinogen]: 400 PPM IN DRINKING WATER FOR 12 WK) was 59%, 50%, 15%, not significant [study A]; also recorded: 13/22 (59%), 11/22 (50%), 15%, not significant [study B] and the “tumour outcome (control, treated, inhibition, significance)” value (Carcinogen: N-METHYL-N-NITROSOUREA, 684-93-5, 1000 PPM IN DIET FOR 22 WK BEGINNING 1 WK POST CARCINOGEN TREATMENT (STUDY DURATION: 36 WK), Target Tissue: Type of Lesion: GLANDULAR STOMACH: ADENOCARCINOMA, Dose [Carcinogen]: 400 PPM IN DRINKING WATER FOR 12 WK) was 59%, 23%, 61%, p<0.05 [study A] and 13/22 (59%), 5/22 (23%), 61%, p<0.05 [study B].
